Assay results as given in ChEMBL document CHEMBL4888484, “Replenishing the malaria drug discovery pipeline: Screening and hit evaluation of the MMV Hit Generation Library 1 (HGL1) against asexual blood stage Plasmodium falciparum ,using a nano luciferase reporter read-out” (2022).
Screen size: about 150,000 compounds; about 540 (0.36%) showed an effect of 50% or more. Some of the results follow.

System: Plasmodium falciparum
Test: Primary screen in NF54 nanoGlo assay, in single point, at 2uM, 72h; a lower Z score goes with more inhibition
Format: functional, Erythrocyte
Details: timepoint 72 hour

Structure (SMILES)	% Inhibition [%]	Z score
COc1cc([C@H]2CC(=O)Nc3c2ncn3-c2cccc(C(F)(F)F)c2)cc2c1OCO2	-12	1.2
COC(=O)c1c(CN(C)[C@@H](C)c2cccnc2)nc2ccccc2c1-c1ccccc1	1	-0.21
O=C(NCC(=O)N1CCc2ccccc2C1)N[C@H]1CCc2cn[nH]c2C1	-22	2.33
CCc1ccc(S(=O)(=O)Nc2ccc(N3CCC(OC)CC3)cc2)s1	-26	3.28
Cc1oncc1CNC(=O)Nc1cccs1	-12	1.83
O=C1Nc2ccccc2[C@@H]1Cc1ccsc1	-15	1.8
O=C(c1cnccn1)N1CCOc2ccc(CN3CCc4ccccc4C3)cc2C1	-4	0.48
COc1cc2c(cc1OC)C(=O)N(Cc1ccccc1)C(=O)C2=O	-13	1.31
O=C(CCCn1cncn1)Nc1ccccc1-n1ccnn1	-10	1.24
NC(=O)c1c(NC(=O)c2cccc3ccccc23)sc2c1CCCC2	-22	2.94
CCc1sc(C(=O)N2CC[C@H](OCCN3CCCCC3)C2)cc1C	-6	0.87
CCOCCCC(=O)N[C@](C)(C#N)C1CCCCC1	-13	1.75
Cn1cccc1CNC(=O)C1CCN(c2ncnc3[nH]cnc23)CC1	-4	0.84
Cc1ccc2sc(C(=O)N3CC(OCC(=O)N(C)C)C3)cc2c1	36	-4.89
CC(C)[C@H](NC(=O)Nc1cccc(C(F)(F)F)c1)C(=O)O	-12	1.39
CC(CCc1ccccc1)NC(=O)NC1CCCCC1C (stereo not given)	-3	0.44
C=C(C)CN(CC)S(=O)(=O)c1cnn2ccccc12	-3	0.4
CCCn1nccc1S(=O)(=O)N1CCNCC1	-7	0.96
CN(Cc1ccncc1)[C@@H](c1ccc(F)cc1)c1ncccn1	-18	1.51
CNC(=O)c1cnc(C=Cc2ccc(OCC(F)F)cc2)[nH]c1=O	-3	0.48
Cc1cnccc1C(=O)N1CCO[C@H]2CCC[C@H]21	-3	0.46
COC(=O)c1c(CN2CCN(c3nccs3)CC2)nc2ccccc2c1-c1ccccc1	-13	1.34

Structure (SMILES)	% Inhibition [%]	Z score
O=C(COc1ccccc1)NCC(=O)NC1CCCC1	4	-0.72
Cn1c(N2CC[C@H](O)C2)nc2ccccc21	-18	2.32
OC1(Cc2cc(-c3ccccc3)no2)CCN(Cc2ccc3nsnc3c2)CC1	-6	0.95
O=C(C[C@@H]1NC(=O)NC1=O)NCc1cccnc1Oc1ccc(F)c(F)c1	-8	0.85
CCCC[C@H](NC(=O)c1cc(=O)cc(C)[nH]1)c1cccnc1	-14	1.5
COc1ccc(CN2C(=O)O[C@H]3CN(C(C)=O)C[C@H]32)cc1OC	-1	0.13
C[C@@H]1CCO[C@@H]1C(=O)N1CCCC(c2[nH]ncc2CN2CCCC2)C1 (stereo not given in full)	4	-0.7
Cc1nnc(-c2ccc(S(=O)(=O)N3CCCCC3)o2)o1	-11	1.48
CNc1ncccc1CN1C[C@H](N(C)C)C[C@H]1CO	0	-0.04
C[C@@]1(C(F)F)CN(C(=O)Nc2ccc(F)cc2N2CCOCC2)CCO1	-1	0.24
c1cc2cc(N[C@H]3CCOC3)cnc2[nH]1	-3	0.4
CN1CCC[C@@H]1COc1nc2ccccc2o1	-4	0.52
O=C(CC1C=CCCC1)N1CCCC(n2ccc(C(F)(F)F)n2)C1 (stereo not given)	-10	1
CN(CCc1cccs1)C(=O)Nc1nnc2ccccn12	3	-0.59
COCCN(CCCOc1ccc(C#N)cc1)CC(=O)N(C)C	4	-0.46
O=C1C[C@H](C(=O)N2CCCC2)CN1CCc1c[nH]c2ccc(Cl)cc12	0	-0.05
CO[C@H]1CS(=O)(=O)C[C@@H]1n1cnc2c(F)cccc2c1=O	5	-1.01
Cc1nn(Cc2ccccc2)c(=O)n1-c1ccc(Oc2ccccc2)cc1	-5	0.79
Cc1ncsc1CCN1CCc2ccc(C(=O)O)cc2C1	11	-1.93
CNc1nc(C(N)=O)c(NC(=O)CN2CCCCCC2)s1	-4	0.77
CCCn1nnc2cc(S(=O)(=O)N3CCCC[C@H]3C(=O)NCCCN3CCCC3=O)ccc21	-11	1.7
Cc1ccc(-c2noc3nc(C)cc(C(=O)Nc4ccccc4)c23)cc1	-11	1.44

Structure (SMILES)	% Inhibition [%]	Z score
COc1cccc(C2(NS(=O)(=O)c3cnnn3C)CCOCC2)c1F	-1	0.11
C[C@@H](c1nnnn1C)N1CCc2cncnc2C1	-7	0.61
COc1cccc([C@H](C)NC(=O)CC[C@@H]2NC(=O)NC2=O)c1	-13	1.97
CCN(C)c1nc2cc(Cl)ccc2c2nnc(-c3ccccc3C)n12	-6	1.03
Cc1cc(C)c2c(c1)-c1c(ssc1=S)C(C)(C)N2C(=O)Cn1nc(C)cc1C	4	-0.53
COc1cccc(CN[C@H]2CCCN(c3nc(C)c4cc(F)ccc4n3)CC2)c1OC	-11	1.38
Cc1cccc(OCC(=O)c2ccc3c(c2)N(Cc2ccc(C(=O)NCc4ccccc4)o2)C(=O)CO3)c1	-8	0.77
Cc1ccnn1CCC(=O)N1CCCN(S(=O)(=O)N2CCCC2)CC1	12	-2.32
C[C@]1(CO)[C@H]2Cc3sc(NC(=O)C4CCC4)nc3[C@@H](CC(=O)Nc3nccs3)[C@]2(C)CC[C@H]1O	-13	1.64
O=C(CCc1ccc(O)cc1)N1CC[C@@H]2CC[C@@]21c1cccnc1	-7	1.03
Nc1nc(-c2cccs2)c(-c2cccs2)s1	-10	2.01
C[C@]1(O)CCN(C(=O)c2cnc3c(c2)CCC3)C[C@H]1O	7	-0.7
COC(=O)c1cn(N)cc2c(O)nnc1-2	0	-0.03
COc1ccc(-c2nn(-c3ccccc3)c3nc(C)cc(C(F)(F)F)c23)cc1	7	-0.84
COc1cccc(NC(=O)O[C@@H]2CC[C@]3(C)C(CC[C@@H](O)[C@H]3CC(=O)N3CCC[C@H]3CO)[C@]2(C)CO)c1 (stereo not given in full)	-1	0.16
Nc1c2c(-c3ccccc3F)nc(NCCc3ccccc3)nc2nn1-c1ccc(Cl)c(Cl)c1	-3	0.45
Cn1c(=O)sc2cc(NS(=O)(=O)c3ccc4c(c3)CCCC4)ccc21	13	-1.71
O=C1NC(=O)[C@@H]2CN(c3nc4ccccc4s3)C[C@H]12	-6	0.72
COc1ccccc1NC(=O)c1cccc(-n2ncc(C#N)c2N)c1	-2	0.18
C=C(C)COc1cccc(CN2CCN(C(=O)c3nc[nH]n3)CC2)c1	18	-2.58
CC(C)CCOC1CCN(C(=O)Cn2cnnn2)CC1	7	-0.89
CCOc1cccc(Cc2noc([C@@H]3CCCN3c3nccs3)n2)n1	4	-0.45

Structure (SMILES)	% Inhibition [%]	Z score
Cn1nc2nc(N3CCN(c4ccccn4)CC3)nc(-c3ccc(F)c(Cl)c3)c2c1N	-4	0.55
CC(C)[C@@](C)(O)CNCc1cc(O)cc(Cl)c1	11	-2.29
CC(C)OCCN(C)C(=O)c1ccc(O)cc1F	-8	1.08
COc1cc(C)nc(N(C)Cc2scnc2C)n1	3	-0.43
CCCC(C#N)(CCC)NC(=O)C[C@H]1CCCO1	-9	0.93
CN(CC1CCCCC1)C(=O)Cn1cnnn1	-10	2.06
CCCc1nc(C)sc1C(=O)OCC	-21	1.96
Cc1cc(S(=O)(=O)N2CC[C@]3(CCN(C)C3)C2)sc1C	-13	1.88
COc1ccc(C(=O)N[C@@](C)(CO)C(C)C)cn1	-9	1.43
CC(c1nnnn1C)N1CCC(C)(O)C1 (stereo not given)	-5	0.92
CN(CCc1cnccn1)C(=O)N[C@H]1CCC[C@@H](C2CC2)C1	0	-0.02
COC(=O)[C@H]1CCn2c(CCOc3ccccc3)nnc2C1	0	0.03
COc1ccc(OC)c(-c2n[nH]c(C3CCOCC3)c2NC(=O)C(C)C)c1	-12	1.12
Cc1cnn(C2CN(Cc3nc(-c4ccoc4)no3)C2)c1	-9	1.3
Cc1nc(CC(=O)NC2(c3nnc(N)s3)CCCCC2)cs1	-4	0.67
CCn1ncc(C2=NO[C@H](C(=O)N3CCC(C(N)=O)CC3)C2)c1C	-12	1.7
CC(C)(CNC(=O)c1cc(-c2ccc(C(C)(C)C)cc2)nc2ccc(Br)cc12)CNC(=O)c1cc(-c2ccc(C(C)(C)C)cc2)nc2ccc(Br)cc12	-13	1.49
O=c1[nH]c2cccc(N3CCN(Cc4cccc(-c5ccccc5)c4)CC3)c2o1 [BIFEPRUNOX]	1	-0.14
CN(C(=O)c1ccc(OC2CCN(S(=O)(=O)N(C)C)CC2)cc1)C(C1CC1)C1CC1	-9	1.36
